# Experimental data: a collection of fitness landscapes (doi:10.1126/science.1257360)
# The list shows a part of the results.
# B1: PhoQ; a variant is named by its letters at X, in order, P23837 (parent)
# chain: MKKLLRLFFPLSLRVRFLLATAAVVLVLSLAYGMVALIGYSVSFDKTTFRLLRGESNLFYTLAKWENNKLHVELPENIDKQSPTMTLIYDENGQLLWAQRDVPWLMKMIQPDWLKSNGFHEIEADVNDTSLLLSGDHSIQQQLQEVREDDDDAEMTHSVAVNVYPATSRMPKLTIVVVDTIPVELKSSYMVWSWFIYVLSANLLLVIPLLWVAAWWSLRPIEALAKEVRELEEHNRELLNPATTRELTSLVRNLNRLLKSERERYDKYRTTLTDLTHSLKTPLXXLQXXLRSLRSEKMSVSDAEPVMLEQISRISQQIGYYLHRASMRGGTLLSRELHPVAPLLDNLTSALNKVYQRKGVNISLDISPEISFVGEQNDFVEVMGNVLDNACKYCLEFVEISARQTDEHLYIVVEDDGPGIPLSKREVIFDRGQRVDTLRPGQGVGLAVAREITEQYEGKIVAGESMLGGARMEVIFGRQHSAPKDE
# Variants of: B1
# Assay: enrichment ratio after two sorts for PhoP signalling (ratio (wild type AVST 3.29)); higher = more functional
# Settings: with PhoP (E. coli)
row,Variant,enrichment ratio
1,SYCM,≤ 0.25
2,KGHM,≤ 0.25
3,MGAN,12.6
4,ILQM,≤ 0.25
5,NQYK,≤ 0.25
6,LQGD,≤ 0.25
7,DFMA,≤ 0.25
8,FVVP,≤ 0.25
9,HKQD,≤ 0.25
10,DMQD,≤ 0.25
11,KFYV,≤ 0.25
12,LMED,≤ 0.25
13,PQHH,≤ 0.25
14,EMLI,≤ 0.25
15,FNIK,≤ 0.25
16,HILE,≤ 0.25
17,VEQG,≤ 0.25
18,ECCR,≤ 0.25
19,MPYH,≤ 0.25
20,YRAP,≤ 0.25
21,TYNI,2.3
22,LKFC,≤ 0.25
23,SFSI,≤ 0.25
24,NIIS,≤ 0.25
25,QWMF,≤ 0.25
26,EHAW,≤ 0.25

row,Variant,enrichment ratio
1,TYCF,≤ 0.25
2,YTHA,≤ 0.25
3,VEYD,≤ 0.25
4,KVWW,≤ 0.25
5,VNCA,≤ 0.25
6,LCGY,≤ 0.25
7,FGFQ,≤ 0.25
8,RYSA,≤ 0.25
9,SGLR,≤ 0.25
10,YCWG,≤ 0.25
11,SFMP,≤ 0.25
12,GACE,≤ 0.25
13,LTKN,≤ 0.25
14,RNII,≤ 0.25
15,KPTY,≤ 0.25
16,SGPQ,≤ 0.25
17,MHVH,≤ 0.25
18,FAFC,≤ 0.25
19,EVTS,≤ 0.25
20,NNDM,≤ 0.25
21,DMYK,≤ 0.25
22,RGGK,≤ 0.25
23,TMFQ,≤ 0.25
24,GWSY,≤ 0.25
25,MWSM,≤ 0.25
26,QTVD,≤ 0.25

row,Variant,enrichment ratio
1,HMKH,≤ 0.25
2,GKHA,≤ 0.25
3,TMMQ,≤ 0.25
4,GPER,≤ 0.25
5,RKCS,≤ 0.25
6,QETA,≤ 0.25
7,QRIY,≤ 0.25
8,YTIQ,≤ 0.25
9,QHIT,≤ 0.25
10,EFCQ,≤ 0.25
11,SYGF,≤ 0.25
12,DDLL,≤ 0.25
13,NLNS,≤ 0.25
14,HGIS,≤ 0.25
15,PIHE,≤ 0.25
16,KGMC,≤ 0.25
17,QFFT,≤ 0.25
18,AVPA,≤ 0.25
19,KNRV,≤ 0.25
20,QYQK,≤ 0.25
21,FVWI,≤ 0.25
22,KGTF,≤ 0.25
23,DGSY,≤ 0.25
24,DLTD,≤ 0.25
25,QGHP,≤ 0.25
26,ASHQ,≤ 0.25

row,Variant,enrichment ratio
1,RCKT,≤ 0.25
2,TGHT,8.76
3,HSQR,≤ 0.25
4,NKWH,≤ 0.25
5,YKSE,≤ 0.25
6,ESPH,≤ 0.25
7,AKKW,≤ 0.25
8,VLFN,≤ 0.25
9,ITMG,≤ 0.25
10,SLAQ,3.9
11,MFFG,≤ 0.25
12,INNV,≤ 0.25
13,KPAP,≤ 0.25
14,AKEA,≤ 0.25
15,DNQN,≤ 0.25
16,WSHN,≤ 0.25
17,RMIM,≤ 0.25
18,PAVW,≤ 0.25
19,FDIT,≤ 0.25
20,RDCS,≤ 0.25
21,RKMA,≤ 0.25
22,VYDW,≤ 0.25
23,MHAQ,≤ 0.25
24,VLYY,≤ 0.25
25,SSVQ,9.83
26,PSTG,≤ 0.25

row,Variant,enrichment ratio
1,IDVC,≤ 0.25
2,WKCV,≤ 0.25
3,RHCY,≤ 0.25
4,VNFL,≤ 0.25
5,EDEG,≤ 0.25
6,LEMR,≤ 0.25
7,NVPS,≤ 0.25
8,AYHE,≤ 0.25
9,VKFT,≤ 0.25
10,PNAK,≤ 0.25
11,WSGP,≤ 0.25
12,SNGD,≤ 0.25
13,IGFP,≤ 0.25
14,VQII,≤ 0.25
15,ESPG,≤ 0.25
16,SVMW,≤ 0.25
17,PCDL,≤ 0.25
18,AHQW,≤ 0.25
19,THEC,≤ 0.25
20,EACW,≤ 0.25
21,MNCK,≤ 0.25
22,ERSW,≤ 0.25
23,ILNC,≤ 0.25
24,AAGI,≤ 0.25
25,FKQT,≤ 0.25
26,IYIH,≤ 0.25

row,Variant,enrichment ratio
1,ADQI,≤ 0.25
2,VNFW,≤ 0.25
3,RVWP,≤ 0.25
4,LVPP,≤ 0.25
5,QVVK,≤ 0.25
6,RNQD,≤ 0.25
7,RTSI,≤ 0.25
8,MWEW,≤ 0.25
9,QYKY,≤ 0.25
10,IQRY,≤ 0.25
11,MHHQ,≤ 0.25
12,DKDV,≤ 0.25
13,RDTM,≤ 0.25
14,AQTD,≤ 0.25
15,VQNQ,≤ 0.25
16,MTLS,2.25
17,SSLE,12
18,RCQQ,≤ 0.25
19,YPQR,≤ 0.25
20,GCQW,≤ 0.25
21,YFGC,≤ 0.25
22,AHME,12.2
23,TVPD,≤ 0.25
